Measurements reported in the supplement of paper PMC10126150.
Sequences with one replicate were seen in a single cluster, so their values are uncertain.

Tested on: ATP
Assay: switch fluorescence ratio, 500 uM ATP over buffer (Cy3 cluster intensity, sum of 5 cycles each) (fold (ratio)); higher = stronger signal-on switching upon ATP binding; sequences stand for … in TCGTCGGCAGCGTCAGATGTGTATAAGAGACAGTTTTTTTTTTTTTTTTTTTTTTTTT…TC
Settings: aptamer strand: ATP DNA aptamer (quencher-CACCTGGGGGAGTATTGCGGAGGAAGG + anchor), 100 nM annealed; ATP concentration: 500 uM; one replicate
Procedure, shortened: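 Switching-strand clusters labelled with Cy3 on a modified Illumina MiSeq flow-cell were annealed to 100 nM quencher-labelled ATP aptamer, imaged in selection buffer, and re-imaged after 15 min with 500 uM ATP at 22 °C. This was done over five cycles with NaOH stripping and re-annealing in between. The fluorescence ratio is summed target-cycle over summed buffer-cycle Cy3 intensity per cluster, averaged per switch-domain sequence, excluding clusters outside 100-1000 RFU.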
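Note: ATP exposure 15 min at 22 °C before imaging.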

Sequence	switch fluorescence ratio
GAGCGGCAAA	1.04
TTTTCTGAGT	1.01
CTACGGATGG	1.06
GACCGACAAG	1.04
ATATTCGCTA	1.09
GAGTATAGTC	0.933
AAGTTCTTAG	0.969
CTATCATACT	1.06
AGGGGCTACA	0.97
TAGAGTTGGT	0.998
GTTGGGGATA	1.02
ACGGTGCACC	1.03
ACGGGTTCAT	1.06
AGTAAAGACG	1.06
TCAGGGCCTT	0.986
AGCGTGAAAA	1.09
GCCATCCTCA	1.12
GGCTTCAAGA	0.951
AGCCAGCTGG	0.98
ATCGTGTAG	1.01
TGAAGGCGAA	1.1
ATACATGCA	0.994
TCGGTAAACA	0.925

Sequence	switch fluorescence ratio
CGCGTGGTAG	1.06
TAAGAATTGC	1.01
GCGGTCCTTT	1
GTGGACACCG	0.927
TAGTTTATTG	1.01
AATTAATGCG	1.03
GAACCCCAGC	1.27
GCGCTCCCTT	1.16
TGAGTATATT	1.01
TTTGCTTAAG	0.99
CTGTGCGA	1.08
TTAATTGT	0.989
TCTTTCGTTT	1.08
CCAAAAAGGT	1.06
CCATAGGGTG	1.56
CACAGCGAGT	1.07
TAGTAAGATG	0.991
ACAGGAGCTA	1.11
GCTTCTTAAT	0.995
ACGAAGTGGA	1.01
TCTGAGCCCC	1
CGGAAATTAA	0.963
GTTGAGGTCT	1.01

Sequence	switch fluorescence ratio
GAGTATGCCA	0.846
TCAATATAGG	0.977
TCGCGGACGT	1.05
AGCCCGGACT	1.1
TGGGAAGCGG	0.989
CGACCGCGAG	1.2
CGCACTCATC	1.55
GCGCCGACTT	1
AAGATTGAG	1.01
AGGACAAAAG	1.02
GCCACACGTG	0.986
CTGGAACCAC	1.09
AAGGTCATCG	1
ATTAGTTATC	1.02
GGGGGCGTT	1.02
TTAATGGAAG	0.961
ACTAGAAGCT	0.999
TTTGTAGTAA	3.74
CATTGTGATT	1.04
CCAAAGCAGA	4.05
TCGGGCTAGT	0.93
CCTAGTGAA	1
GTAAATTAGG	1.07

Sequence	switch fluorescence ratio
GAGTTATGCT	0.96
GCGCATATTA	1.12
TGCGCCGGGG	1.03
GGCTTAAGCT	0.974
TGGCCGCTCC	1.29
TCACGTTCGC	1.02
CTCCCCCCG	2.71
TAAACGAGTG	0.987
GGTACTTTAG	1.02
TTCTATTTCA	0.993
GCTTAGCAGG	0.976
GTACCCTCGC	1.09
ATTAGAGGGT	0.997
TGAACTCTTT	0.979
TAGTTTACAT	1
GGAAAAGCAT	0.959
TTTACATCT	0.971
TATCGGAGG	1.03
GGGGATACTA	1.03
CTTGAAGTAT	0.974
GTGTAACTTT	0.986
TTACAGCGAT	1.14
TCTGGTAATA	1.06

Sequence	switch fluorescence ratio
CTTGCATTGG	1.08
TCGTACCGCA	2.01
GTTGCGTGCC	0.993
AGTTAACATC	1.02
TTTCGGCTGG	0.977
GTTAATTGTA	1.01
TCCTCATTCC	1.35
GCGGCCAATC	1.64
ACAGAAAACC	1.05
TTTTTATGTC	1.03
ATGGACGTTA	1.11
ATACTGAACC	1.25
TCCAGTTCGT	1.39
TATACGGAAA	1.07
TTGGTCCCTA	1.01
GGGCCATACG	1.03
TAGTCACTTT	1.02
ACGGGCTAAA	1.02
CGGTACCTCT	0.947
AAGTGTCCAC	1.03
CATCAAATCA	0.998
TTACGCATAA	2.85
CGGACCGCAC	5.08

Sequence	switch fluorescence ratio
GATGGCTGT	0.962
AACAGTACT	1.31
ATGCTATATC	1.17
TTATTCTCTC	1.04
AACCAAAACT	1.07
CCGCTGGAGT	1.29
GGGCAGTTAT	1.01
GTACGTTGAG	0.992
TTTTAGATAC	2.1
GGTGTTCGC	0.957
AAACGCTCCT	1.16
GCTATGGGAA	0.963
TCAGTAGATG	0.951
GTCTTTTACA	1.02
GTCAGGGTG	1.17
TAGCCTATTA	0.97
AGGACTCCTG	1
GCTCTTTTCT	0.951
GAAGTCATTG	1
TAAGCGGTCT	0.93
GGCTTACATT	0.969
CCTCTTATGG	1.09
ATTTGTTAAA	0.979

Sequence	switch fluorescence ratio
CCAATCAAGG	1.01
CAAGGTACGT	1.06
GGTCTAATAG	0.984
CTAGTGGAGT	1.04
ACGGCCGTAA	1.03
CTTTGCCGGG	1.03
GCGGAAATGC	1.2
GGGCGAGGCA	0.972
ACACGGCGCG	0.984
GGTCGTACAT	0.95
CGTTTCAATT	1
CAACAGCGTT	0.975
TATGCGGCGA	1.02
AATGAGTATC	1.01
TTGGCCGTGG	0.998
ACCAGTCGAG	0.993
GGTATAAACG	1.01
GGGATAAGG	0.986
AGGGGAAGG	0.999
